# Measured values from PubChem BioAssay AID1468 (National Center for Advancing Translational Sciences (NCATS), 2008).
# Out of some 280,000 compounds screened, about 1,100 (0.39%) were called active. The shares of active, inactive and inconclusive entries below differ from those in the screen. The call rests on the fitted dose curve; in most records, active means well fitted inhibition curve with a large enough effect; inconclusive means small, poorly fitted or top-dose-only effect, or effect the other way; inactive means flat fitted curve, though single readings scatter. Potencies of inconclusive entries are left out as doubtful fits.
# Molecular target: Microtubule-associated protein tau (Homo sapiens) (UniProt P10636)
# Chain of UniProt P10636 (P10636 whole entry, looked up): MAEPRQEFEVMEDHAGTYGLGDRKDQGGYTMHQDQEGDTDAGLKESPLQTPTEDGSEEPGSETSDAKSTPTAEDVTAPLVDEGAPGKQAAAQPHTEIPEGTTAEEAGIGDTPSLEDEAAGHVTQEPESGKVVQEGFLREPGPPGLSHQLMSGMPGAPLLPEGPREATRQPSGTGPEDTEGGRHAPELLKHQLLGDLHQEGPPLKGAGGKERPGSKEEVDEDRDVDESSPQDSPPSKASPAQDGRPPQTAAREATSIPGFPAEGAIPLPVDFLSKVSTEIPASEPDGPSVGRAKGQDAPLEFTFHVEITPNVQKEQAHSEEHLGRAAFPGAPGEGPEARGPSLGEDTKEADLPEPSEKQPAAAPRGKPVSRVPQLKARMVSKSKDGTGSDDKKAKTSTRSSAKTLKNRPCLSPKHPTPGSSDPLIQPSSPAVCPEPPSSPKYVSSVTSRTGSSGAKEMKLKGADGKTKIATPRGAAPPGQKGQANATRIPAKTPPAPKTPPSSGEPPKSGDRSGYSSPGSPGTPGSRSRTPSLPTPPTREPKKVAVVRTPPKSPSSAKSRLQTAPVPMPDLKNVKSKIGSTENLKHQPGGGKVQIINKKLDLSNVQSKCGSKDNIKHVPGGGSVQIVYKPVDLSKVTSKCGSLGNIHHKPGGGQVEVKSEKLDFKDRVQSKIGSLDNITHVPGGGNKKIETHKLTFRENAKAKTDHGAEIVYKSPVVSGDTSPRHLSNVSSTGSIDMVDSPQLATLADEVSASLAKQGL
# Assay: qHTS for Inhibitors of Tau Fibril Formation, Fluorescence Polarization; further: nearly all actives have a fitted effect of over 55% in size
# Conditions: K18 P301L tau heparin fibrillization, Alexa594 FP, 6 h; series mostly up to 57.7 µM
# Procedure, shortened: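 Human tau K18 […] P301L fragment, 15 uM unlabeled plus 0.24 uM Alexa 594-labeled tau (final), with compound and 20 uM heparin in 100 mM sodium acetate pH 7; 6 hr at 37 C, then Alexa 594 FP read.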
# Potency means the concentration at half of the fitted maximal effect; tags describe the fitted curve by direction and shape.
row,SMILES,Potency
1,C/C=C/c1ccc(OCCCNC)c(OC)c1,"inconclusive [inhibitor, single point]"
2,Cc1cc(N)ccc1-n1c(C)ccc1C,"inconclusive [inhibitor, partial curve]"
3,COC(=O)Nc1ccc(S(=O)(=O)N2CCCc3ccccc32)cc1,"inconclusive [inhibitor, partial curve, poor fit]"
4,O=C(NCc1ccc2c(c1)OCO2)c1ccc2c(c1)N(Cc1ccc(F)cc1)C(=O)c1ccccc1S2=O (centres undefined),inactive
5,O=C(Nc1cccc(S(=O)(=O)Nc2ccccc2Cl)c1)c1ccc(Cl)nc1,"inconclusive [inhibitor, partial curve, poor fit]"
6,CCCCCn1c(=O)[nH]c2cc(C(=O)NCc3ccc(OC)cc3)ccc2c1=O,"inconclusive [inhibitor, partial curve]"
7,Oc1ccccc1N1CCN(c2ncnc3sc(-c4ccccc4)cc23)CC1,"inconclusive [activator, partial curve]"
8,CCOC(=O)c1sc(=N)n(-c2ccc(OC)cc2)c1C,"inconclusive [activator, full curve]"
9,CCN(CC)c1ccc(NC(=O)Nc2ccc(C(C)=O)cc2)cc1,inactive
10,Cc1c(N2C(=O)c3ccccc3C2=O)c(=O)n(-c2ccccc2)n1C,inactive
11,COC(=O)CCC(=O)N1CN2CN(C(=O)CCC(=O)OC)CC([N+](=O)[O-])(C2)C1,"inconclusive [activator, single point]"
12,COc1ccc(-c2nn(CC(=O)Nc3ccccc3F)c3c2cnc2ccc(F)cc23)cc1,"inconclusive [inhibitor, partial curve, poor fit]"
13,COc1ccccc1NC(=O)N1CCN(c2ccnc3cc(Cl)ccc23)CC1,"inconclusive [activator, single point]"
14,CCn1ncc([C@@H]2C[C@H]3CN(Cc4cccc(Cl)c4)C(=O)[C@]34CCCN24)c1C,inactive
15,CCc1ccc(-n2nc(C)c3c(C(=O)NCCc4ccc(OC)c(OC)c4)cc(C)nc32)cc1,inactive
16,N#Cc1c(N)nc(Sc2ccc(Cl)cc2)c(C#N)c1-c1ccccc1Cl,"inconclusive [inhibitor, partial curve]"
17,NS(=O)(=O)c1ccc(N/N=C2/CCCCC2C2CCCCC2)c([N+](=O)[O-])c1 (centres undefined),"inconclusive [activator, partial curve]"
18,C=CCSC1=N/C(=C\c2ccc(C(=O)O)cc2)C(=O)S1,"inconclusive [inhibitor, single point]"
19,O=C(Nc1nnc(COc2ccc(Cl)cc2)s1)c1cccs1,"inconclusive [inhibitor, single point]"
20,Cc1[nH]c2ccccc2c1/C=N/NC(=O)c1cc(-c2ccccc2)n[nH]1,"inconclusive [activator, partial curve]"
21,CCOC(=O)c1cc(C(=O)OCC)cc(-n2c(C)cc(C(=O)CN3CCOCC3)c2C)c1,inactive
22,CCC1CCCCN1C(=O)c1nn(-c2ccc(C)cc2)c(=O)c2c1c1ccccc1n2C (centres undefined),inactive
23,COc1ccc(S(=O)(=O)N/N=c2\oc3c(OC)cccc3cc2S(=O)(=O)c2ccc(C)cc2)cc1OC,inactive

row,SMILES,Potency
1,O=C(Nc1c(-c2ccccc2)nc2ccccn12)c1ccc(Br)cc1,inactive
2,COc1cc(SC#N)ccc1N=Cc1c(C)[nH]n(-c2ccc(C)cc2)c1=O,"inconclusive [inhibitor, partial curve]"
3,CN(C)S(=O)(=O)Oc1ccccc1C(=O)Nc1cccc(C(F)(F)F)c1,"inconclusive [inhibitor, single point]"
4,Cc1ccc(/C=N/Nc2nc3ccccc3[nH]2)s1,"inconclusive [activator, single point]"
5,CCOC(=O)c1ccc(NC(=O)c2csc3c2CCCCC3)cc1,"inconclusive [inhibitor, partial curve]"
6,Cc1nonc1OCC(C)(COc1nonc1C)NC(=O)c1ccccc1,inactive
7,O=C(COc1ccccc1Cl)Nc1ccc(Cl)c(-c2nc3ccccc3o2)c1,"inconclusive [inhibitor, partial curve]"
8,CCOC(=O)N1CCC(=NNC(=O)COc2cccc(C)c2)CC1,inactive
9,Cc1cc(Cl)c(S(=O)(=O)Nc2ccc3c(c2)OCCO3)cc1OCC(=O)NC1CCCCC1,"inconclusive [activator, single point]"
10,COc1cc(NC(=O)c2ccnc(N)c2)cc(C(=O)Nc2cccc(C(F)(F)F)c2)c1,active: 28.2 µM
11,Cc1ccc(-n2ccnc(NCCc3ccc(S(N)(=O)=O)cc3)c2=O)cc1C,inactive
12,Cc1oc(-c2cccc(Cl)c2)nc1CSc1nc2ncccc2[nH]1,inactive
13,COc1ccc(S(=O)(=O)Nc2nnc(C)s2)cc1,inactive
14,CC(=O)c1sc(N/N=C/c2ccc(C(C)C)cc2)nc1C,"inconclusive [activator, partial curve, poor fit]"
15,CCOc1ccc(CC(=O)N2CCN=C2SC)cc1,"inconclusive [inhibitor, single point]"
16,O=C(O)CCn1c(=O)c2ccccc2c2ccccc2c1=O,"inconclusive [inhibitor, partial curve]"
17,Cc1nc2ccc(Nc3nc4cc(S(=O)(=O)N5CCOCC5)ccc4o3)cc2s1,inactive
18,O=C(Cn1ncc2c3ccccc3n(Cc3ccccc3)c2c1=O)Nc1ccccc1C(F)(F)F,"inconclusive [inhibitor, single point]"
19,NC(=O)c1ccc(NC(=O)COC(=O)CCc2ccc(S(=O)(=O)N3CCCCC3)cc2)cc1,"inconclusive [inhibitor, single point]"
20,Cc1cccc(C(=O)NC(=S)Nc2ccc(S(=O)(=O)N3CCCCC3)cc2)c1,inactive
21,CCCCN=C(NNc1ccc(Br)cc1)C(=O)OCC,inactive
22,CCOc1ccc(NC(=O)Nc2ccc3snnc3c2)cc1,"inconclusive [activator, partial curve]"
23,COc1cccc(CNC(=O)Cc2c(C)c3c(cc(C)c4c(C)coc43)oc2=O)c1,inactive

row,SMILES,Potency
1,O=C(Nc1cc(S(=O)(=O)N2CCOCC2)ccc1N1CCOCC1)c1cc2c(s1)CCC2,inactive
2,O=C(NCc1ccccc1)c1ccc2nc(-c3ccco3)c(-c3ccco3)nc2c1,"inconclusive [inhibitor, single point]"
3,CC(=O)Nc1ccc(S(=O)(=O)NCCSCc2ccco2)cc1,"inconclusive [inhibitor, partial curve, poor fit]"
4,O=C(Nc1cccc(S(=O)(=O)Nc2ccccc2Cl)c1)c1ccc(N2CCCC2)c([N+](=O)[O-])c1,"inconclusive [inhibitor, single point]"
5,NC(=O)c1nsc(C(=O)N(CCc2ccccc2)C(C(=O)NC2CCCC2)c2ccco2)c1N (centres undefined),inactive
6,CC(C)NCC(=O)Nc1c2c(nc3ccccc13)CCC2,inactive
7,COc1cc(NC(=O)Nc2cccc(C(C)=O)c2)cc(OC)c1OC,"inconclusive [activator, partial curve]"
8,Cc1cc(NC(=O)COC(=O)c2ccc(S(=O)(=O)N3CCCc4ccccc43)cc2)no1,"inconclusive [inhibitor, partial curve]"
9,N#CC1=C(N)C(C#N)(C#N)C(c2cccnc2)C2COCC=C12 (centres undefined),"inconclusive [inhibitor, single point]"
10,COc1ccccc1NS(=O)(=O)c1cc(NC(=O)C2CCCC2)ccc1N1CCOCC1,inactive
11,CCC(=O)N1CCN(c2ccc(Cl)cc2NC(=O)Cc2ccc(Cl)cc2)CC1,inactive
12,O=C(CSCc1nc2ccccc2[nH]1)Nc1ccc2ccccc2c1,"inconclusive [inhibitor, partial curve]"
13,O=C(Nc1ccc(Cl)c(Cl)c1)Nc1nnc(CSc2ccccc2)s1,active: 3.55 µM
14,COc1ccc(-c2cc(C(=O)c3c(N)n(C)c(=O)n(C)c3=O)c3ccccc3n2)cc1OC,"inconclusive [inhibitor, full curve, poor fit]"
15,Cc1ccc2c(c1C)NC(C(=O)O)C1CC=CC21 (centres undefined),"inconclusive [inhibitor, partial curve]"
16,CC(=O)CC1OC(=O)C(Br)=C1NCc1ccccc1 (centres undefined),"inconclusive [inhibitor, partial curve]"
17,CC1CCC2(CC1)N=C(c1ccccc1)C(=O)N2CC(=O)Nc1ccc(F)c(Cl)c1 (centres undefined),"inconclusive [inhibitor, partial curve]"
18,COc1cc(C(=O)OCc2cc(=O)n3nc(C(C)C)sc3n2)cc(OC)c1OC,"inconclusive [inhibitor, full curve, poor fit]"
19,CCOC(=O)C(C)Sc1nc2c(c(=O)[nH]c(=O)n2C)n1Cc1ccc(Cl)cc1 (centres undefined),inactive
20,COc1cccc(C(=O)Nc2ccccc2-c2nc3ccccc3s2)c1,"inconclusive [inhibitor, single point]"
21,CCOC(=O)c1c(NC(=O)c2ccccc2)sc2c1CCc1ccccc1-2,"inconclusive [inhibitor, partial curve]"
22,COc1ccc(OC)c(C2C3=C(N=c4s/c(=C\c5cccc(O)c5)c(=O)n42)c2ccccc2CC3)c1 (centres undefined),active: 22.4 µM
23,O=C(Cn1c(=O)n(Cc2ccc(C(=O)NCc3ccccc3Cl)cc2)c(=O)c2ccccc21)Nc1ccc(F)c(Cl)c1,active: 14.1 µM
